# Assay results reported in the supplement of paper PMC7826260.
# Some of the results follow. The data describe in vitro nicking of single-stranded DNA by Rep domains at 3 µM enzyme and 37 °C for 1 h; the strands have 90 letters, of which the middle is given. The score is log2 (uncut reads / reads without enzyme); strong cutting gives strongly negative numbers. There is no active / inactive call. The scaling is to total reads; where an enzyme cuts many sequences, the uncut ones exceed 0.
# How the values were obtained:
# Experiment in all cases: uncleaved DNA left, log2 of reads against the no-enzyme library (log2 ratio); higher = less cleavage (more negative = more Rep cleavage of the k-mer); sequences stand for … in CTCGTCCG…ACCGGAGA
# [1] = tested on: T1, Rep nickase domain of Muscovy duck circovirus
# T1 sequence (residues 1-111 of Rep, tag left off): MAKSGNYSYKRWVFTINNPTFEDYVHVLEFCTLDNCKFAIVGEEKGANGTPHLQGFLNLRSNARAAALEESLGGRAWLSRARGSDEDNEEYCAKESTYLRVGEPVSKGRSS
# Procedure: (§1)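 A pool of 90-nt single-stranded DNAs with seven random bases just before the constant AC of the nick site (name = the seven bases) was cut by 3 µM recombinant His6-SUMO-tagged Rep nickase domain (300 nM DNA, 50 mM HEPES pH 8.0, 50 mM NaCl, 1 mM MnCl2, 1 h, 37 °C, three replicates). Uncut DNA was amplified and sequenced.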
# [2] = tested on: T2, Rep nickase domain of banana bunchy top virus
# T2 sequence (residues 1-94 of Rep, tag left off): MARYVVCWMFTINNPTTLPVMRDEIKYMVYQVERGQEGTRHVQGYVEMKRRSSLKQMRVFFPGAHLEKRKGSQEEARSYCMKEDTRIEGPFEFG
# Procedure: as §1
# [3] = tested on: T3, Rep nickase domain of cabbage leaf curl virus
# T3 sequence (residues 1-116 of Rep, tag left off): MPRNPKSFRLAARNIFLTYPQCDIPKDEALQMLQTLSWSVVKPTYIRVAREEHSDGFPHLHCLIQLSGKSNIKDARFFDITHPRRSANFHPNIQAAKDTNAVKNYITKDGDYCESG
# Procedure: as §1
# [4] = tested on: T4, Rep nickase domain of chickpea chlorotic dwarf virus
# T4 sequence (residues 1-124 of Rep, tag left off): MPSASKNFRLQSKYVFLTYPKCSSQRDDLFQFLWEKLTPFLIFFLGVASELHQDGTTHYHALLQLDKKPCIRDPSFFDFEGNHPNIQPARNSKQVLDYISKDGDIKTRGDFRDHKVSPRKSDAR
# Procedure: as §1
# [5] = tested on: T5, Rep nickase domain of faba bean necrotic yellows virus
# T5 sequence (residues 1-98 of Rep, tag left off): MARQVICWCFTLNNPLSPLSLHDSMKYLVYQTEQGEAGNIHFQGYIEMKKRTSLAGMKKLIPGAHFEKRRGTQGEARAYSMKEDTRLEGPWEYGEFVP
# Procedure: as §1
# [6] = tested on: T6, Rep nickase domain of maize striate mosaic virus
# T6 sequence (residues 1-117 of Rep, tag left off): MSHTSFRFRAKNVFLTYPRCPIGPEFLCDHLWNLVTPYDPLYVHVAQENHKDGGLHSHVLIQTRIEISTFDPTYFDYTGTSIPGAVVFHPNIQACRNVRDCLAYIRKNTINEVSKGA
# Procedure: as §1
# [7] = tested on: T7, Rep nickase domain of porcine circovirus 2
# T7 sequence (residues 2-116 of Rep, tag left off): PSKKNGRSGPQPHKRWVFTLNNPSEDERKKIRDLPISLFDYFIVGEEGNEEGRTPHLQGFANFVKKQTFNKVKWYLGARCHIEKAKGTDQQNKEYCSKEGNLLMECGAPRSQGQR
# Procedure: as §1
# [8] = tested on: T8, Rep nickase domain of tomato golden mosaic virus
# T8 sequence (residues 1-124 of Rep, tag left off): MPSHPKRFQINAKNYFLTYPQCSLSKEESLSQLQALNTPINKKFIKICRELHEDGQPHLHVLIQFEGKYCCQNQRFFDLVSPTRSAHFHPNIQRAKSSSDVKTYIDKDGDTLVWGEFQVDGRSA
# Procedure: as §1
# [9] = tested on: T9, Rep nickase domain of tomato yellow leaf curl virus
# T9 sequence (residues 1-136 of Rep, tag left off): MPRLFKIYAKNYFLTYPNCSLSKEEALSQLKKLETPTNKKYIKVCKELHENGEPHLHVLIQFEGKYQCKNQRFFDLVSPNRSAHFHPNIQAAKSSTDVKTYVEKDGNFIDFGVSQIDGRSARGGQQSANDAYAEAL
# Procedure: as §1
# [10] = tested on: T10, Rep nickase domain of wheat dwarf virus
# T10 sequence (residues 1-137 of Rep, tag left off): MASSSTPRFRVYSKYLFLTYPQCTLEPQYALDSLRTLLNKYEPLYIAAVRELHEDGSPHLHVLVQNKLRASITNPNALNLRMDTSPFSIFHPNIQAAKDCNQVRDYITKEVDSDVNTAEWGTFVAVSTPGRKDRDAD
# Procedure: as §1
Sequence,uncleaved DNA left (log2) [1],uncleaved DNA left (log2) [2],uncleaved DNA left (log2) [3],uncleaved DNA left (log2) [4],uncleaved DNA left (log2) [5],uncleaved DNA left (log2) [6],uncleaved DNA left (log2) [7],uncleaved DNA left (log2) [8],uncleaved DNA left (log2) [9],uncleaved DNA left (log2) [10]
GCTGCTC,-0.0251,-0.00258,-0.00645,0.351,0.0936,0.313,0.128,0.0485,0.047,-0.0886
GATTGTA,-1.52,-0.433,0.014,-0.117,-0.0395,-0.404,-2.23,0.0825,0.0883,0.0354
CAGTACA,-0.145,-0.392,-0.217,-2.43,-0.629,-0.712,-2.5,-0.149,0.0844,-0.0499
AACTTCT,-3.51,-2.64,-0.935,-3.01,0.00514,-1.11,-3.75,-0.0499,0.0664,-0.175
CCGACGG,-0.101,-0.141,0.128,0.711,-0.0485,1.5,0.132,0.0811,-0.154,-0.0671
ACCTGCG,-0.0387,-0.107,0.47,1.75,-0.0481,2.03,-0.00503,-0.111,-0.25,-0.0791
GTTACGC,0.093,0.127,0.31,0.477,0.079,0.496,0.0929,0.0665,0.166,0.111
TCTTCGC,0.0771,-0.141,-0.54,-0.794,0.0629,-1.09,0.00197,-0.0799,-0.00908,-0.142
GCATACA,-0.0536,0.0271,-0.11,-1.09,0.0488,-0.0505,-0.128,-0.0104,-0.121,-0.0315
CTTGTTA,-0.194,-0.0224,-0.0842,-1.14,-0.0539,-0.608,-0.304,-0.135,-0.211,0.0485
GCCCCCC,-0.00232,0.0665,0.194,0.47,-0.0949,0.51,-0.241,-0.0639,-0.00925,0.0984
ATCAGAG,0.046,-0.109,-0.611,-0.369,0.049,-1.18,0.168,-0.0306,-0.0241,-0.155
TATCAGC,-0.0341,0.157,-0.315,-0.627,0.000832,-1.12,0.116,-0.0866,0.0593,0.105
CAAGCCG,0.0495,0.0154,-0.717,-0.468,0.0363,-0.89,0.099,-0.0698,-0.044,-0.132
GTTAGCT,-0.078,-0.0293,0.0862,0.283,-0.0859,0.412,0.0538,-0.0689,-0.102,-0.0661
TGTCTCC,0.0512,-0.0346,0.149,0.344,-0.0928,1.47,0.0728,-0.0449,-0.0815,-0.0136
CTCGCCG,-0.131,-0.182,-0.895,-0.658,-0.31,-0.928,-0.002,-0.166,-0.184,-0.27
AAGCCGG,-0.137,0.0159,0.244,0.797,-0.0213,0.857,-0.0137,0.00975,-0.15,-0.0384
GTTGAAC,-0.00175,0.105,0.307,0.901,0.0324,1.56,0.108,-0.00443,0.208,0.105
AGTTTGT,-0.3,-0.118,-0.191,-0.41,-0.0966,-0.693,-3.2,-0.139,0.0402,-0.198

Sequence,uncleaved DNA left (log2) [1],uncleaved DNA left (log2) [2],uncleaved DNA left (log2) [3],uncleaved DNA left (log2) [4],uncleaved DNA left (log2) [5],uncleaved DNA left (log2) [6],uncleaved DNA left (log2) [7],uncleaved DNA left (log2) [8],uncleaved DNA left (log2) [9],uncleaved DNA left (log2) [10]
ACCGGGC,-0.18,-0.0558,0.607,0.941,0.0237,1.22,0.119,0.0115,-0.118,-0.0515
GACGAGA,0.089,0.0933,0.87,1.49,0.019,1.85,0.152,0.12,-0.039,0.0785
TTTACCA,0.0212,0.0483,0.0742,-2.05,-0.1,0.428,-0.498,-0.0097,0.0662,0.133
TCCCTGT,-0.0864,-0.166,0.189,-0.364,-0.173,-0.304,-0.133,-0.118,0.0348,-0.0239
ATGCCAG,-0.00129,-0.0698,-0.845,-0.46,-0.103,-1.24,0.0553,-0.0608,-0.0752,-0.112
GTGATGA,-0.00324,0.0741,0.367,1.01,0.0244,1.72,0.0756,0.0192,0.0265,0.127
TGGCCAC,-0.000229,0.101,0.324,0.916,-0.0149,1.57,0.147,-0.0467,0.136,0.0925
CAGGTTC,-0.0719,0.0452,0.0298,0.242,0.00368,0.655,-0.0815,0.0201,-0.119,-0.0248
GGTCCAC,0.16,0.272,0.657,1.32,0.148,1.95,0.381,0.244,0.229,0.248
GCACTAC,-0.0754,0.0373,-0.165,-1.08,-0.025,-0.178,-0.063,-0.0568,-0.0834,-0.0215
AAGGAAG,0.0438,-0.0246,-0.324,-0.162,0.054,-0.98,0.205,0.134,-0.117,-0.0657
AATTCGC,-0.00662,-0.115,-0.681,-0.692,0.0588,-1.19,0.0653,-0.0951,0.0339,-0.0234
TTGTCGG,0.14,0.0306,0.449,1.25,0.0194,1.57,0.205,0.233,-0.0225,0.0509
TACCAAC,-0.0627,0.0172,-0.169,-1.6,-0.0711,-0.251,-0.331,-0.0742,0.0798,0.00709
CAAAGCG,-0.0708,-0.00652,-0.817,-0.0785,0.107,-0.917,0.153,0.0316,0.0471,-0.0782
GGGCGGT,0.0601,-0.0647,0.707,1.71,0.0786,2.2,0.143,0.0464,-0.0604,0.0239
CCGAACC,-0.155,-0.141,0.0289,-0.521,-0.12,-0.449,-0.289,0.0106,-0.126,-0.167
AGTCTTT,0.0947,-0.164,0.0916,-1.75,-0.392,0.0893,-3.32,0.00359,0.0377,0.0291
TTTTAAA,0.128,0.161,0.354,0.305,0.203,0.403,0.139,0.278,0.205,0.153
AACTAAT,-3.17,-3.34,-1.05,-2.51,-0.233,-0.732,-3.9,-0.354,-0.254,-0.153

Sequence,uncleaved DNA left (log2) [1],uncleaved DNA left (log2) [2],uncleaved DNA left (log2) [3],uncleaved DNA left (log2) [4],uncleaved DNA left (log2) [5],uncleaved DNA left (log2) [6],uncleaved DNA left (log2) [7],uncleaved DNA left (log2) [8],uncleaved DNA left (log2) [9],uncleaved DNA left (log2) [10]
TAGATCA,0.0399,0.124,0.194,-1.4,-0.000157,0.691,-1.79,0.0183,0.103,0.176
CGCCAAA,0.0221,0.107,-0.0172,0.17,0.0195,-0.426,-0.0124,0.0475,-0.0288,0.114
TTAATCC,0.0288,-0.00716,0.411,0.135,0.0015,-0.103,0.061,-0.057,0.0136,0.0692
GCAGCTA,-0.0659,0.00963,0.0539,-0.311,-0.052,-0.18,0.0164,0.127,-0.0326,0.0311
TCTATAG,-0.0183,-0.0815,-0.615,-0.888,0.0479,-1.34,0.168,-0.0429,0.0214,-0.161
ACAACCA,-0.0745,0.063,-0.172,-1.83,0.0276,-0.708,-0.321,-0.0202,-0.0616,0.0613
TACCCGC,-0.0787,-0.092,-0.498,-1.17,-0.0685,-1.04,-0.822,-0.148,-0.127,-0.14
TGACTAA,-0.0361,-0.0546,0.0393,0.314,-0.156,0.613,-0.0443,-0.191,-0.142,-0.0232
TGTCCGA,0.115,0.101,-0.0618,-0.0128,0.0278,-0.598,0.00833,-0.0277,-0.0439,0.158
GGCCTCG,0.0587,0.0782,-0.125,-0.107,-0.0712,-0.319,0.0352,0.0395,0.0492,0.0146
TGGGTGA,-0.0797,-0.0978,0.414,0.962,0.00716,1.19,0.0522,-0.087,0.0055,0.0126
CGACAGT,0.0587,0.0584,0.165,0.768,0.117,1.51,-0.0105,-0.0561,0.0686,0.206
GGAAGTC,0.157,0.152,0.578,1.46,0.057,1.95,0.24,0.032,0.0435,0.229
GTGCCAT,-0.0124,0.00978,0.457,1.25,-0.0968,1.87,0.089,0.00999,0.0312,0.0153
AGGCCGT,0.107,0.104,0.349,0.431,0.11,-0.00723,0.0431,0.14,0.148,0.165
AGACGCA,0.0398,-0.0385,0.206,-0.27,-0.0254,1.02,-0.000196,0.07,-0.0814,-0.0325
CGTGTGT,-0.101,-0.153,-0.441,-0.585,0.0514,-0.77,-0.118,-0.125,-0.0609,-0.195
GGCAATC,0.0844,0.0817,0.516,1.47,0.000615,1.84,0.205,-0.0305,0.0647,0.112
CCCTGAG,-0.136,-0.0258,-0.676,-0.182,0.066,-0.99,0.109,0.0304,0.0772,-0.034
CCCCCGC,-0.205,-0.246,-0.454,-0.801,-0.252,-0.94,-0.307,-0.138,-0.191,-0.162
